From publication PMC6464128
These are yes or no findings as the source states them, for the method shown. For some assays here: In cells and extracts the contact can be indirect. Some entries that bind do so weakly or less than the wild type. Tags and fused reporters may be left off the sequences shown.

The chains behind the UniProt entries cited, without tags or fusion partners.
UniProt P49736: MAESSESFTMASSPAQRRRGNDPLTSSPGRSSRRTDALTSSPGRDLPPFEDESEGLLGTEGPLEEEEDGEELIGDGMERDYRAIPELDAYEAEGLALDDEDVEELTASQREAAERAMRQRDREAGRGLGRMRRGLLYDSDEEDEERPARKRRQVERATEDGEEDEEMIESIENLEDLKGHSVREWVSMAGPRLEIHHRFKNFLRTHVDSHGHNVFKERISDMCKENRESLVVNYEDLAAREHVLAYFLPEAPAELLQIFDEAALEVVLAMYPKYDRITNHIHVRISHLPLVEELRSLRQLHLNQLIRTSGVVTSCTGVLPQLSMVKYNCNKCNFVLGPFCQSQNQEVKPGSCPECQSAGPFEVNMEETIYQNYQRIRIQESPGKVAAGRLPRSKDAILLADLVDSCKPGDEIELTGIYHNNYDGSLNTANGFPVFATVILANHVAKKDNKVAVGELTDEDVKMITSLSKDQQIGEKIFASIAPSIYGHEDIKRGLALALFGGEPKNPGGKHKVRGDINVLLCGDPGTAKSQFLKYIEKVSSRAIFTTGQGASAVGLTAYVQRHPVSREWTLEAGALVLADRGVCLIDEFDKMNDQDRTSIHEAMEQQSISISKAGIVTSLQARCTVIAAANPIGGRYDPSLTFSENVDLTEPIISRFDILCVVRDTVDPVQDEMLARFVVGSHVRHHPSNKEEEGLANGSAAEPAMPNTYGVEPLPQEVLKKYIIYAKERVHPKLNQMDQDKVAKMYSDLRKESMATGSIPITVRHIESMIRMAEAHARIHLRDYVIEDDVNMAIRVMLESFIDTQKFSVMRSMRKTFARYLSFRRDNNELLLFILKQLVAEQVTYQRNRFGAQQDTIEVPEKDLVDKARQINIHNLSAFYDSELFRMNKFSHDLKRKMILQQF

T1: TEN1, yeast two-hybrid fusion (human) (UniProt Q86WV5)
T1 sequence: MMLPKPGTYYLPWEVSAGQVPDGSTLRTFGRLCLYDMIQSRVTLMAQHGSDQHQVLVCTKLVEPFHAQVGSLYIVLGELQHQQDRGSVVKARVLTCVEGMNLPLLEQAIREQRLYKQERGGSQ

T2: Flag-tagged STN1 (human) (UniProt Q9H668)
T2 sequence: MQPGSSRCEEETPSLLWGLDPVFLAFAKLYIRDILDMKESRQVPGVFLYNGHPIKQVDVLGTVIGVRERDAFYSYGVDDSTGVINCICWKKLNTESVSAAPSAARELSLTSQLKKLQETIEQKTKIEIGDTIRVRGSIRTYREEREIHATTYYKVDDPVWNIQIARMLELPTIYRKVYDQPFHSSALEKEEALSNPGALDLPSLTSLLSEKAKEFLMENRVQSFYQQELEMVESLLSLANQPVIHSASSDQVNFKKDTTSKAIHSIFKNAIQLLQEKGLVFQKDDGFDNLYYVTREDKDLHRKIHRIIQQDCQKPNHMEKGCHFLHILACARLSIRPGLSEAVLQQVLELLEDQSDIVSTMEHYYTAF

B1: AND-1 (endogenous) (protein, UniProt O75717 1-1129)
chain: MPATRKPMRYGHTEGHTEVCFDDSGSFIVTCGSDGDVRIWEDLDDDDPKFINVGEKAYSCALKSGKLVTAVSNNTIQVHTFPEGVPDGILTRFTTNANHVVFNGDGTKIAAGSSDFLVKIVDVMDSSQQKTFRGHDAPVLSLSFDPKDIFLASASCDGSVRVWQISDQTCAISWPLLQKCNDVINAKSICRLAWQPKSGKLLAIPVEKSVKLYRRESWSHQFDLSDNFISQTLNIVTWSPCGQYLAAGSINGLIIVWNVETKDCMERVKHEKGYAICGLAWHPTCGRISYTDAEGNLGLLENVCDPSGKTSSSKVSSRVEKDYNDLFDGDDMSNAGDFLNDNAVEIPSFSKGIINDDEDDEDLMMASGRPRQRSHILEDDENSVDISMLKTGSSLLKEEEEDGQEGSIHNLPLVTSQRPFYDGPMPTPRQKPFQSGSTPLHLTHRFMVWNSIGIIRCYNDEQDNAIDVEFHDTSIHHATHLSNTLNYTIADLSHEAILLACESTDELASKLHCLHFSSWDSSKEWIIDLPQNEDIEAICLGQGWAAAATSALLLRLFTIGGVQKEVFSLAGPVVSMAGHGEQLFIVYHRGTGFDGDQCLGVQLLELGKKKKQILHGDPLPLTRKSYLAWIGFSAEGTPCYVDSEGIVRMLNRGLGNTWTPICNTREHCKGKSDHYWVVGIHENPQQLRCIPCKGSRFPPTLPRPAVAILSFKLPYCQIATEKGQMEEQFWRSVIFHNHLDYLAKNGYEYEESTKNQATKEQQELLMKMLALSCKLEREFRCVELADLMTQNAVNLAIKYASRSRKLILAQKLSELAVEKAAELTATQVEEEEEEEDFRKKLNAGYSNTATEWSQPRFRNQVEEDAEDSGEADDEEKPEIHKPGQNSFSKSTNSSDVSAKSGAVTFSSQGRVNPFKVSASSKEPAMSMNSARSTNILDNMGKSSKKSTALSRTTNNEKSPIIKPLIPKPKPKQASAASYFQKRNSQTNKTEEVKEENLKNVLSETPAICPPQNTENQRPKTGFQMWLEENRSNILSDNPDFSDEADIIKEGMIRFRVLSTEERKVWANKAKGETASEGTEAKKRKRVVDESDETENQEEKAKENLNLSKKQKPLDFSTNQKLSAFAFKQE

Tests used:
[1] = molecular target: T1, TEN1, yeast two-hybrid fusion (human); test: two-hybrid; Matchmaker GAL4 system; mating of S. cerevisiae Y187 (pGBKT7) and AH109 (pGADT7); diploids from DDO spotted on QDO (high stringency) or TDO (less stringent) medium, 30°C, growth recorded after 3-4 d
Flag-tagged STN1 (human) = molecular target: T2, Flag-tagged STN1 (human); test: co-IP; HEK 293T transfected with HA-CTC1, Flag-STN1 and untagged TEN1, individually or in combination; nuclease (Benzonase)-treated whole cell lysates; IP with anti-Flag or anti-HA agarose overnight at 4°C; endogenous partners detected by Western blot; also after HU treatment (no significant change)

Molecule | binding [1] | binding (Flag-tagged STN1 (human))
MCM2, yeast two-hybrid fusion (from UniProt P49736 1-904) | no binding | 
B1 |  | binds
